The other results are listed elsewhere or left out.
B1: chr22:19452774:19452775:-_ENSG00000070010_ENST00000399523|hu_hu|hu_hu_hu_mus_False|1_88 (ssRNA)
RNA: GGGAGUUCUACAGUCCGACGAUCCUUCUCAUUGUAGUUGAUAGCAAUCACAUCCCCAGUCGUCAGACAGGCGAAGUUUCUCAAUGCAUUUUCUAAUACCGCUUUAGGGUUGGUAAUAUCCAGGAAGUCUGGGCUCUGAGGUUGCAACAGAGGAUUGAGCAUCA
B2: chrX:41000244:41000245:+_ENSG00000124486_ENST00000378308|hu_mus|FALSE|FALSE (ssRNA)
RNA: GGGAGUUCUACAGUCCGACGAUCUGCUUCUUUCUUCAGCUCUUCAUCAGUUAAGUUUUCUAAAAACUGUGGAACCAUUUCUAUUAUUGGAAGAAAGUACUUUUUCACUGUGUGAAGAGUAAGAAACUCAUAGCACUGUCCAAACAACAGAGGAUUGAGCAUCA
B3: chr17:64801638:64801639:+_ENSG00000154229_ENST00000413366|hu_mus|hu_hu_hu_mus_False|1_58 (ssRNA)
RNA: GGGAGUUCUACAGUCCGACGAUCUAUAUAUAUAUAUACAUAUGUACACAUAUAUAGUAAAACCCUAGUUAAACGUGUAAACUAGCCAUUCAUUUUUAAAAUUACAUCUACAUUAAAAAAUUAAUAUAUCUGAUAGAGUGCCCACAACAGAGGAUUGAGCAUCA
B4: chr14:17255229:17255230:+_ENSMUSG00000017485_ENSMUST00000017629|mus_mus|motif|central (ssRNA)
RNA: GGGAGUUCUACAGUCCGACGAUCAACAAAUUCAUCUUCCCCAUCAUUUGUUAUGGGAGAUGCUUUAACUUUCAGUUCUUCGGAAUCAUUACUGUCAUCAGCAGCAGCAGCAUCAUCAUCCUCCUCUUCUGAGAAAUCAAAAGUCAACAGAGGAUUGAGCAUCA
B5: chr18:9859796:9859797:+_ENSG00000168461_ENST00000578921|hu_mus|FALSE|FALSE (ssRNA)
RNA: GGGAGUUCUACAGUCCGACGAUCGUCCAGCUGUGCAUCUCUGAUCUCCCUCAGAAAACUAAUAAAGACUUACUUCCAAAGCCAGCUAAGCGCUAACCUCCUAUUAUAGCCUUUGCCUUUUGGUGAACUGGCCAGAAAGGAAGGCAACAGAGGAUUGAGCAUCA
B6: chr18:56819859:56819860:+_ENSG00000166562_ENST00000588875|hu_mus|hu_hu_hu_mus_True|18_108 (ssRNA)
RNA: GGGAGUUCUACAGUCCGACGAUCAACUUUGAUUACUCUGUGAACUAUCGGAAUGUCUCUUCCUUCAACCUUAAAAACAACUAUUUCACCAGCUCUGAUGGGGUCCUCCCGGAAAUUUGUGAGGAACAGCAGAUCUCCUCUGUGCAACAGAGGAUUGAGCAUCA
B7: chr3:167437968:167437969:-_ENSG00000114209_ENST00000497056|hu_mus|motif|central (ssRNA)
RNA: GGGAGUUCUACAGUCCGACGAUCUUCAUCUCUUCCAUUGUCAUCCUCAUUCAAAAGCCAACUACAGUAGAAAAAGCAAUGCGGAAAUGCAGAGGAAUCUUCAUUCACUGCCGAAUUUCUUCCCUUUUUUAUGUGUAUGUGAUACAACAGAGGAUUGAGCAUCA
B8: chr1:46159212:46159213:+_ENSG00000159596_ENST00000372025|hu_mus|hu_hu_hu_mus_True|98_108 (ssRNA)
RNA: GGGAGUUCUACAGUCCGACGAUCUCUGAUCCCACCCAAGAAAGAUAGGAAACCGGCUCCAUAAGCCAUCUGAGUGAAAGCUAGGACGGGGAUAUAAGACUUUGUUAUUACCAUGAGAAGUGGGGGAGCAGUAAAGGGGAUUAACAACAGAGGAUUGAGCAUCA
B9: 176637606_176637726_2311_3pUTR_ENSG00000165671_ENST00000439151|human|control|control (ssRNA)
RNA: GGGAGUUCUACAGUCCGACGAUCCUUGAUUUGCUGCCCCACCCUUUAUUAACGAGUUCUCACUGGAUAUGCUUGAUGACAGGUUGAAUUUUGGAGAGAGAGCAUCAUUUGUAAAAUCUGACUGGGGUUUGUGAACAAGAGUAGCAACAGAGGAUUGAGCAUCA
B10: chr3:196089228:196089229:-_ENSG00000163960_ENST00000296328|hu_hu|motif|central (ssRNA)
RNA: GGGAGUUCUACAGUCCGACGAUCUUCCCUUUUUCCAUCUGGAUACCGCAACAUCAGCUGUGCUUUUGGUCCAUUUACAUCGGUCCCCUCCACUACUCCAUCUGCUUUUUCAGGUGGCAUCUCCAGUAUCUCUGAAUCCACAGCCAACAGAGGAUUGAGCAUCA
B11: chr2:38870607:38870608:+_ENSMUSG00000026755_ENSMUST00000090993|perfect_dup|FALSE|FALSE (ssRNA)
RNA: GGGAGUUCUACAGUCCGACGAUCUAACAGGAUUUUUUUUUAAACAGUCUUUCUUGCUGUAAGAACUCUUAUAAUGGAGCCUAGUCCUCCUACAGCUAAGGCCUUUUCAUGCCACUGGAGUAGCACUGCACUGCUAUUUUCUGUCAACAGAGGAUUGAGCAUCA
B12: 98611581_98611701_1167_3pUTR_ENSMUSG00000031310_ENSMUST00000121520|mouse|control|control (ssRNA)
RNA: GGGAGUUCUACAGUCCGACGAUCGCUGAGGCAACCCCUUGCGCUGAUAGGCCGUCUGCCCCUUCUGCAGUGGUGUCCGGCAAUGUGCACAAGACAUCUUGGUGCCCAUUGAAGAGCGCCCAGCCCUUUGUGCCAUACUUGAGCCAACAGAGGAUUGAGCAUCA
B13: chr6:53132721:53132722:-_ENSG00000012660_ENST00000304434|hu_hu|motif|central (ssRNA)
RNA: GGGAGUUCUACAGUCCGACGAUCUUACCUGUUUGACCACUGCCUCAAAUGUGUGAGAUGUGAUUUUAUGAUAAGCAGUCGGUUAUUUUUAAACAAGAGGUUCUAAACACAUCUUUAGAUUCUAAGCAGAAAGAAAUUACAAGUCAACAGAGGAUUGAGCAUCA
B14: chr5:4806066:4806067:-_ENSMUSG00000028926_ENSMUST00000030763|mus_mus|motif|central (ssRNA)
RNA: GGGAGUUCUACAGUCCGACGAUCUCACCCUGUCUUUGUUUUCCAUGUUUAUUUCUCUACCUGCUCAGAAACAGUCAGGCGGUUGAAAUAGCAAGUGGAUUUUGGUCUCCUGUGUAAAUGUGUGCUCAUUUCCAAUAAAAAACGCAACAGAGGAUUGAGCAUCA
B15: chr7:7679991:7679992:-_ENSG00000106399_ENST00000396682|hu_hu|hu_hu_hu_mus_False|68_78 (ssRNA)
RNA: GGGAGUUCUACAGUCCGACGAUCUGGGAUGAAUCUUUUCCAGCUUCCCCACGAAGCAGACAGGCUUGUCGAUGAAUUGUGGUAACAUGCUGGCGUUGACGCGCGCUUUGGGGAGCUGCAUUAUGUCCUCCAUGAUUCUGCCGCCAACAGAGGAUUGAGCAUCA
B16: chr5:128440902:128440903:+_ENSG00000066583_ENST00000173527|hu_mus|hu_hu_hu_mus_True|8_58 (ssRNA)
RNA: GGGAGUUCUACAGUCCGACGAUCUUGAACGGUGCUGCCAAGUCCUUUGGGGUAUUGUUCCGUUAUGAUAACUGGAAUUCCUAAAAUCCGAGCUCCUUGCAACAGUCUCUGUCCCACACUAAUGAUGUCCCCAAAAUAUUUGAUCAACAGAGGAUUGAGCAUCA
B17: chr2:202488911:202488912:-_ENSG00000155755_ENST00000286196|hu_mus|hu_hu_hu_mus_False|8_78 (ssRNA)
RNA: GGGAGUUCUACAGUCCGACGAUCAUUGAAACAUUUUUCAUAAUCUCCAGUAGCAUUCAGUAUUAUAGUAACAAAAGCUCAAUUGUAAAUACAUGUAUCUUAUAAAAAUACACUUAAAAACACGAGUAAAAAUGGGAGGCGCCACAACAGAGGAUUGAGCAUCA
B18: 107884013_107888248_129_3pUTR_ENSMUSG00000027889_ENSMUST00000078912|mouse|control|control (ssRNA)
RNA: GGGAGUUCUACAGUCCGACGAUCACUGUAGCGGAGAGGCCCCCAGACCGCUUCGAGCUUCUGGAGCGGCAGCGGAAGCUUGCAGGCCGGCCCGCUUCUUAAAGGGAUAUUUGGCCUUGGACUUGCCUGGGCCAGGAUAGGAUGCAACAGAGGAUUGAGCAUCA
B19: 120328023_120328557_91_ncRNA_ENSMUSG00000057594_ENSMUST00000124970|mouse|control|control (ssRNA)
RNA: GGGAGUUCUACAGUCCGACGAUCCGAGCUCUCGGAUGGUGAUCUUCCUGUGGGCCACAAUGUCUGUAAGGUUGGUGCCCACCGUGGGCCGCGUCGGUGGGGGCUCUCCCAGGUCGCCUUUGCCAUCUCCGGAGCUCAGCUGUCCAACAGAGGAUUGAGCAUCA
B20: chr5:44151052:44151053:-_ENSMUSG00000039753_ENSMUST00000047857|mus_hu|FALSE|FALSE (ssRNA)
RNA: GGGAGUUCUACAGUCCGACGAUCGUCAGUCUGGGUAAGAUCCAGAUGCUCCAGGUUAGGACAAAGCUCUAAAAUCUGCCUAACCAUUUUGCUGGAAACUGCAGAGCUGUAUGCUAAUACUAAGGUUUUUACAGAAGUACCAACCAACAGAGGAUUGAGCAUCA
B21: chr1:151372964:151372965:+_ENSG00000159377_ENST00000290541|hu_hu|motif|central (ssRNA)
RNA: GGGAGUUCUACAGUCCGACGAUCCUUCGAGCGCCGGCUGUACAUGGCCCUGGUCAGCCAUGAAUGAAUAGCUCUAGGACGGUAGCUGUGUCCAUCUCCCAGAAGCUCCUCAUCAAUCACCAUCUGGCCGAGAACUUGCUUCAACAACAGAGGAUUGAGCAUCA
B22: chr5:93601047:93601048:+_ENSMUSG00000058013_ENSMUST00000074733|mus_hu|FALSE|FALSE (ssRNA)
RNA: GGGAGUUCUACAGUCCGACGAUCCAUGAUCCAACCUUUAAGACCUCUAUCUGUGAGAGGAUCAAGGAUGCACCAGUAAAUGUGAACUAAUCAUAGUUUUCUCAUACCAGUCUACUCCAACUUGGCCAGGAUUGAAGGCAGGCACAACAGAGGAUUGAGCAUCA

Molecular target: T1, UNK ZnF1-3 (human, UniProt Q9C0B0 31-174)
T1 sequence: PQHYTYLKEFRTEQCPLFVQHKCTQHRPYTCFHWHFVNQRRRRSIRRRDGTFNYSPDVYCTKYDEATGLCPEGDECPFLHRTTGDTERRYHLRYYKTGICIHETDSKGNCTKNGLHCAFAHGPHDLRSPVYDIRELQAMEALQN
Assay: nsRBNS (natural sequence RNA bind-n-seq); RBNS binding buffer (assumed for nsRBNS): 25 mM Tris pH 7.5, 150 mM KCl, 3 mM MgCl2, 0.01% Triton X-100, 500 ug/ml BSA, 20 U/ml SUPERase-In, 4 C; UNK is unkempt and MSI1 is Musashi-1; names of the RNAs are library labels; protein concentration not given here; high values mean tight binding

Binder	binding signal [enrichment R]
B1	0.802
B2	0.713
B3	0.891
B4	1.18
B5	1.27
B6	0.738
B7	1.32
B8	1.52
B9	2.28
B10	0.863
B11	0.657
B12	0.705
B13	1.36
B14	1.14
B15	0.618
B16	0.967
B17	1.28
B18	0.824
B19	0.72
B20	1.17
B21	0.93
B22	1.1

— publication PMC12136788
